From paper PMC4336329 (PLoS ONE, 2015)
The whole screen tested about 310,000 compounds, of which about 2,200 (0.71%) showed an effect of 50% or more. Effects have a minus sign here. Some of the results follow.

Molecular target: human ether-à-go-go-related gene (hERG) potassium channel (human, UniProt Q12809)
Assay: primary screen, population patch clamp on CHO cells stably expressing hERG

Sequence of human ether-à-go-go-related gene (hERG) potassium channel (Q12809 whole entry, looked up): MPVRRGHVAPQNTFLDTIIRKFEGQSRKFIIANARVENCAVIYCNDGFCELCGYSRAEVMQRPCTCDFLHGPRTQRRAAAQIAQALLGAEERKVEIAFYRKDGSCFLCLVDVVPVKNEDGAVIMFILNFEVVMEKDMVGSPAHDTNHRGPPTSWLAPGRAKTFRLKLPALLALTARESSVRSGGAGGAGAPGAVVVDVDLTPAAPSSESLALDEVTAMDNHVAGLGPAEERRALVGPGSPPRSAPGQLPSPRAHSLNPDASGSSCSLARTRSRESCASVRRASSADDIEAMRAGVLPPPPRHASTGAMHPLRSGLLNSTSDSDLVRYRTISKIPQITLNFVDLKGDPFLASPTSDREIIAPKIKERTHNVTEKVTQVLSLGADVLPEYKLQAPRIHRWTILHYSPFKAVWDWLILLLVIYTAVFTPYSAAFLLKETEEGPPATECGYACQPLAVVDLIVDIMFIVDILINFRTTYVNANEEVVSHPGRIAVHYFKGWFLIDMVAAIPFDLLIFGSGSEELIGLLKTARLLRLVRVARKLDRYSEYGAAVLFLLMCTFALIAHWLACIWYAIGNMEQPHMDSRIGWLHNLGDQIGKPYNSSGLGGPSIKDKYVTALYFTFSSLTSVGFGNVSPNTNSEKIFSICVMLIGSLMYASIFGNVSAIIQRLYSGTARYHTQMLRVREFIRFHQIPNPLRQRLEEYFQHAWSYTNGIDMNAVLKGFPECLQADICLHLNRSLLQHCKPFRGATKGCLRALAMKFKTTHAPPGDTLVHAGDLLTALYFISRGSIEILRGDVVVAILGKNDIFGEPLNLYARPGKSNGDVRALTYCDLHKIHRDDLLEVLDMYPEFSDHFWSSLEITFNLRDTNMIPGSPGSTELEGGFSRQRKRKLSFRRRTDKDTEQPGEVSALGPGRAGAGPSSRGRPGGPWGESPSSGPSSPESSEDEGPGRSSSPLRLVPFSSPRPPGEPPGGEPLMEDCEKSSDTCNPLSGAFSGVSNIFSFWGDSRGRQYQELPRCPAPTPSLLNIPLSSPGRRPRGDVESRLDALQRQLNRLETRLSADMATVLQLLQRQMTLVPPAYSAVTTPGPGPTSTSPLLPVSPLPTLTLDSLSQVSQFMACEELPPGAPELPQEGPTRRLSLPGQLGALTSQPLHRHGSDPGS

Structure (SMILES)	hERG current change (%, negative = inhibition) at 1uM [%]
NS(=O)(=O)Cc1noc2ccccc12	11.6
O=C(Nc1ccccc1Cc1ccccc1)c1oc2ccccc2c1COc1ccccc1	12.7
Cc1cccc(-n2c(SCC(N)=O)nc3c(c2=O)C2(CCCCC2)Cc2ccccc2-3)c1	6.74
CC(=O)CC(C)(C)Nc1nc2cc([N+](=O)[O-])ccc2o1	11.6
CCOC(=O)c1c(NC(NC(C)=O)C(Cl)(Cl)Cl)sc(C(C)=O)c1C (stereo not shown)	13.3
CC(=O)Nc1ccc(NC(=S)NC(=O)c2cc3ccccc3o2)cc1	11
COc1ccc(-c2[nH]ncc2CN(C)Cc2ccccn2)c(OC)c1	-4.12
COc1ccc(C)cc1NC(=O)CSc1nnc(-c2cc3cccc(OC)c3o2)n1N	16.6
CC1CCN(C(=O)CSc2nnc(N)s2)CC1	10.8
Fc1cccc(Cl)c1CSc1nnc2ccccn12	12.3
Cc1cccnc1NC1OC(=O)c2ccccc21 (stereo not shown)	8.78
COc1ccc(CCC(=O)Nc2ccc(S(=O)(=O)N3CCCC3)cc2)cc1OC	4.82
COc1cc(S(=O)(=O)NC2CCSc3ccccc32)ccc1NC(C)=O (stereo not shown)	17.4
CC1(C)S[C@@H]2[C@H](NC(=O)COc3ccccc3)C(=O)N2C1C(=O)OCC1CCCCC1 (stereo partly shown)	8.97
Cc1ccccc1-n1c(CSC(=N)N)nc2ccccc2c1=O.Cl	10.6
Cc1cccc(SC2CCN(Cc3nc(CC4CC4)no3)CC2)c1	4.44
CCCn1c(N)[n+](CC(=O)c2ccco2)c2ccccc21.[Br-]	7.08
COc1ccc(OCc2nnc(SCC(=O)Nc3ccccc3F)o2)cc1	9.17
O=C(CSc1nc2ccccc2c(=O)[nH]1)c1ccc(O)c(O)c1	-5.29
O=C(Cn1cnc2ccccc2c1=O)NCCC(=O)Nc1ccc(F)cc1	19.3
COC(=O)c1ccc(/C=C2\Oc3ccccc3NC2=O)cc1	11.7
COc1ccc2nc(N/C(N)=N/C(=S)Nc3ccccc3)nc(C)c2c1	16.2

Structure (SMILES)	hERG current change (%, negative = inhibition) at 1uM [%]
COc1cc(C(=O)NCc2nnc(SCC(=O)N3CCCC3)o2)cc(OC)c1OC	16.9
CC(=O)c1ccc(-c2cccc(-c3nc4ccccn4c3NC3CCCCC3)c2)cc1.O=C(O)C(F)(F)F	10.5
C/C(CC(=O)NCc1ccc(Cl)cc1)=N\NC(=O)c1ccccc1F	8.84
O=C(CSc1nnc(-c2cccnc2)o1)N1CCCCC1	12.6
Brc1cnc(N2CCCCC2)nc1N1CCOCC1	6.67
O=C(O)C(=O)O.c1ccc(-c2ccccc2OCCCN2CCCCCC2)cc1	-52.7
Cc1ccc(C(=O)/C=C/Nc2ccc(S(=O)(=O)Nc3onc(C)c3C)cc2)cc1	7.31
COc1ccc(NC(=O)C23CC4CC(C2)CC(n2cnc(Br)n2)(C4)C3)cc1Cl	-3.2
COc1ccc(C(=O)NCC(=O)NCC(c2ccco2)N(C)C)cc1OC (stereo not shown)	3.86
CCOC(=O)c1cc(NC(=O)N(CC)CC)c(C)nc1C	4.59
COc1ccc(OC)c(C(=O)c2c(C)oc3cc(Br)c(O)c(CN(C)C)c23)c1.Cl.O	-0.292
Cc1cc(C)cc(NC(=O)CN(C)S(=O)(=O)c2cnc[nH]2)c1	15.4
CC(=O)c1c(C)[nH]c(C(=O)OCC(=O)N2CC(=O)Nc3ccccc32)c1C	9
Cc1ccc(C)c(S(=O)(=O)N/N=C2/CCCc3ccccc32)c1	9.92
Cc1ccc(F)cc1CNC(=O)C1CCC(=O)N(CC2CCCCC2)C1 (stereo not shown)	20.5
COc1ccccc1NC(=O)Nc1ccccc1C(N)=O	9.63
CN(CC(=O)Nc1ccc(F)c(F)c1)S(=O)(=O)c1cccc2nsnc12	-1.55
COc1ccccc1C(=O)N/C(=C\c1ccc(Br)cc1)C(=O)N1CCCC1	-1.22
Cc1ccc(S(=O)(=O)Nc2nc(C)c(C(=O)NNS(=O)(=O)c3ccccc3)s2)cc1	9.71
CC(=O)c1ccc(NC(=S)N2CCC(Cc3ccccc3)CC2)cc1	15.2
Cc1ccc2c(c1)nnn2C1CCN(CC(=O)NCCc2nc3ccccc3[nH]2)CC1	-4.28
COc1cccc2cc(C(N)=O)/c(=N\NC(=O)c3ccccc3)oc12	17.8

Structure (SMILES)	hERG current change (%, negative = inhibition) at 1uM [%]
COc1ccccc1N1CCN(C(=O)CCC(=O)N2CCN(c3ccccc3OC)CC2)CC1	13.4
CCOc1c(CNc2nnnn2C)cccc1OC	8.02
Cc1ccc(C)c(NC(=O)c2ccc(OCc3c(C)noc3C)cc2)c1	-0.0437
NC(=O)NC(CC(=O)NCc1ccc2c(c1)OCO2)c1ccccc1Cl (stereo not shown)	19.8
COc1ccc(OCC(=O)N/N=C(\C)c2cccs2)cc1	11.7
C=CCN(CC#CCOc1ccccc1OC)CC=C.O=C(O)C(=O)O	7.54
Cc1nn(-c2ccccc2)c(C)c1/C=N/NC(=O)CSc1nc2ccccc2c(=O)n1-c1ccccc1	7.63
Cc1ccc(-c2nn(-c3ccccc3)cc2/C=N/NC(=O)c2ccncc2)o1	10.8
CCCCC(=O)Nc1ccccc1C#N	11.1
COc1ccc(Nc2nc(NCC3CCCO3)nc(N)c2[N+](=O)[O-])cc1 (stereo not shown)	2.2
CCc1ccc(NC(=O)Cc2ccc(OC)cc2)cc1	11.1
CCCC12C(=O)C(C)(C(c3ccccc3)=C1c1ccccc1)C1C(=O)N(c3ccc(C)cc3)C(=O)C12 (stereo not shown)	-0.609
O=C(/C=C/c1ccccc1)Nc1nc(-c2ccncc2)cs1	4.02
CC(Oc1ccc(Cl)cc1)C(=O)N/N=C/c1ccsc1 (stereo not shown)	8.98
CC1(C)Cc2c(sc3nc(SCC(=O)NCc4ccccc4)n(-c4ccccc4)c(=O)c23)CS1	6.37
CCOc1ccc(CN(C(=O)c2cccs2)C2CCS(=O)(=O)C2)cc1 (stereo not shown)	18
CCOc1ccc(C(=O)Nc2ncccc2Cl)cc1.Cl	15.2
Cc1nnsc1C(=O)NNC(=O)Nc1ccccc1	9.66
O=C(OC1CCOC1=O)c1ccc(CO)cc1 (stereo not shown)	15
Cc1cccc(NC(=O)CSc2ccc(-c3ccco3)nn2)c1	-0.275
CSc1ccccc1C(=O)N1CCCCC1	0.118
CN(C)c1nc(Cl)nc(NCCOc2ccccc2)n1	6.37

Structure (SMILES)	hERG current change (%, negative = inhibition) at 1uM [%]
O=C(O)C(=O)O.OC(CNC1CCCCCCC1)c1ccccc1 (stereo not shown)	10.4
CCOc1ccc(CCNC(=O)C2CCN(c3nn4c(=O)cc(C)nc4s3)CC2)cc1	-4.93
O=C(Nc1ccc(N2CCCC2)cc1)c1cccc(-c2cc3ccccc3oc2=O)c1	20
COc1cc(/C=N/NC(=O)CNS(=O)(=O)c2ccc(C)cc2)cc(OC)c1OC	11.7
COc1ccc(-c2c(C(C)=O)c(C)nc3sc4c(=N)n(N)cnc4c23)cc1	10.8
Cc1c(Cl)c([N+](=O)[O-])nn1CC(=O)NC(C)c1ccccc1 (stereo not shown)	12.2
CCc1nnc(NC(=O)CCC(=O)N2CCN(Cc3ccc(Cl)cc3)CC2)s1	-5.62
O=C(N/N=C/C=C\c1ccccc1[N+](=O)[O-])c1ccncc1	10.5
COC(=O)c1ccc(C(c2c(N)n(CC(C)C)c(=O)[nH]c2=O)N2CCN(c3ccccc3)CC2)cc1 (stereo not shown)	6.67
Cc1cccnc1CN1CCN(Cc2nc(C(c3ccccc3)c3ccccc3)no2)CC1	-26.5
CCOc1ccc2nc(NC(=O)C3CCCN(S(=O)(=O)c4cccs4)C3)sc2c1 (stereo not shown)	5.49
Cc1ccc2nc3ccc(N4CCCC4)nn3c(=O)c2c1	7.78
O=S(=O)(c1ccc2oc3ccccc3c2c1)N1CCOCC1	-3.92
COc1ccc(OCC(=O)Nc2ccc3oc(-c4ccncc4)nc3c2)cc1	8.04
O=C(Nc1ccccc1-c1nc2ccccc2s1)c1ccco1	-0.434
Cc1cc(NC(=O)COC(=O)CCC(=O)c2ccc(F)cc2)no1	11.5
COc1ccccc1NC(=O)c1ccc(-n2cccn2)c([N+](=O)[O-])c1	3.64
COc1cccc(C(=O)Nc2nnc(S(=O)(=O)Nc3cccc(C)c3)s2)c1	2.89
COc1cc(C2C(C(=O)c3ccco3)=C(O)C(=O)N2Cc2cccnc2)cc(OC)c1OC (stereo not shown)	13.8
COCCNC(=S)N1CCc2cc(OC)c(OC)cc2C1COc1ccc(C(C)C)cc1 (stereo not shown)	13.4
CC(C)(C)CC(=O)Nc1ccc(C(N)=O)cc1	5.78
O=C(CSc1nc2c(c(C(F)(F)F)n1)CCc1ccccc1-2)NCc1ccco1	11.7
